Measurements as given in the supplement of paper PMC8728848.
The other results are listed elsewhere or left out.

Columns and labels:
Assay in all cases: glycan array binding signal (z-score within array); higher = stronger binding
Details in all cases: glycan notation: IUPAC condensed, linker removed; mutation: D325N
Gal(b1-2)Gal = molecular target: Gal(b1-2)Gal
Procedure, shortened: (§1)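 Columns mapping to the same glycan were averaged after glycan names were converted to IUPAC-condensed notation. The data come from 3228 arrays in the Consortium for Functional Glycomics database, limited to those with an available protein sequence. Binding is reported as a within-array Z-score averaged across arrays of one protein sequence and across linkers.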

Gal(b1-3)Gal = molecular target: Gal(b1-3)Gal
Procedure, shortened: as §1

Gal(b1-3)Gal(b1-4)GlcNAc = molecular target: Gal(b1-3)Gal(b1-4)GlcNAc
Procedure, shortened: as §1

Gal(b1-3)GalNAc = molecular target: Gal(b1-3)GalNAc
Procedure, shortened: as §1

[1] = molecular target: Gal(b1-3)GalNAc(b1-3)Gal(a1-4)Gal(b1-4)Glc
Procedure, shortened: as §1

[2] = molecular target: Gal(b1-3)GalNAc(b1-4)Gal(b1-4)Glc
Procedure, shortened: as §1

[3] = molecular target: Gal(b1-3)GalNAc(b1-4)[Neu5Ac(a2-3)]Gal(b1-4)Glc
Procedure, shortened: as §1

Gal(b1-3)GlcNAc = molecular target: Gal(b1-3)GlcNAc
Procedure, shortened: as §1

[4] = molecular target: Gal(b1-3)GlcNAc(b1-2)Man(a1-3)[Gal(b1-3)GlcNAc(b1-2)Man(a1-6)]Man(b1-4)GlcNAc(b1-4)GlcNAc
Procedure, shortened: as §1

[5] = molecular target: Gal(b1-3)GlcNAc(b1-3)Gal(b1-3)GlcNAc
Procedure, shortened: as §1

[6] = molecular target: Gal(b1-3)GlcNAc(b1-3)Gal(b1-4)Glc
Procedure, shortened: as §1

[7] = molecular target: Gal(b1-3)GlcNAc(b1-3)Gal(b1-4)GlcNAc
Procedure, shortened: as §1

[8] = molecular target: Gal(b1-3)[Fuc(a1-4)]GlcNAc
Procedure, shortened: as §1

[9] = molecular target: Gal(b1-3)[Fuc(a1-4)]GlcNAc(b1-3)Gal(b1-3)[Fuc(a1-4)]GlcNAc
Procedure, shortened: as §1

[10] = molecular target: Gal(b1-3)[Fuc(a1-4)]GlcNAc(b1-3)Gal(b1-4)GlcNAc
Procedure, shortened: as §1

[11] = molecular target: Gal(b1-3)[Fuc(a1-4)]GlcNAc(b1-3)Gal(b1-4)[Fuc(a1-3)]GlcNAc
Procedure, shortened: as §1

[12] = molecular target: Gal(b1-3)[GlcNAc(b1-6)]GalNAc
Procedure, shortened: as §1

[13] = molecular target: Gal(b1-3)[Neu5Ac(a2-6)]GalNAc
Procedure, shortened: as §1

[14] = molecular target: Gal(b1-3)[Neu5Ac(a2-6)]GlcNAc(b1-6)Gal(b1-4)Glc
Procedure, shortened: as §1

[15] = molecular target: Gal(b1-3)[Neu5Ac(b2-6)]GalNAc
Procedure, shortened: as §1

[16] = molecular target: Gal(b1-4)GalNAc(a1-3)[Fuc(a1-2)]Gal(b1-4)GlcNAc
Procedure, shortened: as §1

[17] = molecular target: Gal(b1-4)GalNAc(b1-3)[Fuc(a1-2)]Gal(b1-4)GlcNAc
Procedure, shortened: as §1

Gal(b1-4)Glc = molecular target: Gal(b1-4)Glc
Procedure, shortened: as §1

Gal(b1-4)Glc6S = molecular target: Gal(b1-4)Glc6S
Procedure, shortened: as §1

Gal(b1-4)GlcNAc = molecular target: Gal(b1-4)GlcNAc
Procedure, shortened: as §1

[18] = molecular target: Gal(b1-4)GlcNAc(a1-6)Gal(b1-4)GlcNAc
Procedure, shortened: as §1

[19] = molecular target: Gal(b1-4)GlcNAc(b1-2)Man(a1-3)[Gal(b1-4)GlcNAc(b1-2)Man(a1-6)]Man(b1-4)GlcNAc(b1-4)GlcNAc
Procedure, shortened: as §1

[20] = molecular target: Gal(b1-4)GlcNAc(b1-3)Gal(b1-3)GlcNAc
Procedure, shortened: as §1

[21] = molecular target: Gal(b1-4)GlcNAc(b1-3)Gal(b1-4)Glc
Procedure, shortened: as §1

[22] = molecular target: Gal(b1-4)GlcNAc(b1-3)Gal(b1-4)GlcNAc
Procedure, shortened: as §1

[23] = molecular target: Gal(b1-4)GlcNAc(b1-3)Gal(b1-4)GlcNAc(b1-3)Gal(b1-4)GlcNAc
Procedure, shortened: as §1

[24] = molecular target: Gal(b1-4)GlcNAc(b1-3)Gal(b1-4)[Fuc(a1-3)]GlcNAc(b1-3)Gal(b1-4)[Fuc(a1-3)]GlcNAc
Procedure, shortened: as §1

[25] = molecular target: Gal(b1-4)GlcNAc(b1-3)GalNAc
Procedure, shortened: as §1

[26] = molecular target: Gal(b1-4)GlcNAc(b1-3)[Gal(b1-4)GlcNAc(b1-6)]Gal(b1-4)GlcNAc
Procedure, shortened: as §1

[27] = molecular target: Gal(b1-4)GlcNAc(b1-3)[GlcNAc(b1-6)]Gal(b1-4)GlcNAc
Procedure, shortened: as §1

[28] = molecular target: Gal(b1-4)GlcNAc(b1-6)Gal(b1-4)GlcNAc
Procedure, shortened: as §1

[29] = molecular target: Gal(b1-4)GlcNAc(b1-6)Gal(b1-4)GlcNAc(b1-6)GalNAc
Procedure, shortened: as §1

B1: Surfactant Protein D (Human); Neck + Carbohydrate Recognition Domain (NCRD) (Homo sapiens) (protein)
chain: MLLFLLSALVLLTQPLGYLEAEMKTYSHRTMPSACTLVMCSSVESGLPGRDRDGREGPRGEKGDPGLPGAAGQAGMPGQAGPVGPKGDNGSVGEPGPKGDTGPSGPPGPPGVPGPAGREGALGKQGNIGPQGKPGPKGEAGPKGEVGAPGMQGSAGARGLAGPKGERGVPGERGVPGNTGAAGSAGAMGPQGSPGARGPPGLKGDKGIPGDKGAKGESGLPDVASLRQQVEALQGQVQHLQAAFSQYKKVELFPNGQSVGEKIFKTAQFVKPFTEAQLLCTQAGGQLASPRSAAENAALQQLVVAKNEAAFLSMTDSKTEGKFTYPTGESLVYSNWAPGEPNDNGGSEDCVEIFTNGKWNDRACGEKRLVVCEF
Gal(b1-2)Gal
  glycan array binding signal (z-score): -0.147
Gal(b1-3)Gal
  glycan array binding signal (z-score): -0.159
Gal(b1-3)Gal(b1-4)GlcNAc
  glycan array binding signal (z-score): -0.126
Gal(b1-3)GalNAc
  glycan array binding signal (z-score): -0.139
[1]
  glycan array binding signal (z-score): -0.128
[2]
  glycan array binding signal (z-score): -0.152
[3]
  glycan array binding signal (z-score): -0.152
Gal(b1-3)GlcNAc
  glycan array binding signal (z-score): -0.13
[4]
  glycan array binding signal (z-score): -0.141
[5]
  glycan array binding signal (z-score): -0.128
[6]
  glycan array binding signal (z-score): -0.146
[7]
  glycan array binding signal (z-score): -0.112
[8]
  glycan array binding signal (z-score): -0.124
[9]
  glycan array binding signal (z-score): -0.15
[10]
  glycan array binding signal (z-score): -0.131
[11]
  glycan array binding signal (z-score): -0.113
[12]
  glycan array binding signal (z-score): -0.142
[13]
  glycan array binding signal (z-score): -0.152
[14]
  glycan array binding signal (z-score): -0.128
[15]
  glycan array binding signal (z-score): -0.139
[16]
  glycan array binding signal (z-score): -0.106
[17]
  glycan array binding signal (z-score): -0.103
Gal(b1-4)Glc
  glycan array binding signal (z-score): -0.135
Gal(b1-4)Glc6S
  glycan array binding signal (z-score): -0.121
Gal(b1-4)GlcNAc
  glycan array binding signal (z-score): -0.129
[18]
  glycan array binding signal (z-score): -0.123
[19]
  glycan array binding signal (z-score): -0.099
[20]
  glycan array binding signal (z-score): -0.145
[21]
  glycan array binding signal (z-score): -0.124
[22]
  glycan array binding signal (z-score): -0.164
[23]
  glycan array binding signal (z-score): -0.13
[24]
  glycan array binding signal (z-score): -0.105
[25]
  glycan array binding signal (z-score): -0.064
[26]
  glycan array binding signal (z-score): -0.139
[27]
  glycan array binding signal (z-score): -0.139
[28]
  glycan array binding signal (z-score): -0.147
[29]
  glycan array binding signal (z-score): -0.132
